According to the supplement of paper PMC10600219:
Counter-ions that a name gives are not always drawn. In all, about 2,800 compounds were measured (“cell viability relative to vehicle”: median about 1.1, lowest 2% from about 0.19 on). The list shows a part of the results.

Test system: NCI-H2228 parental
Assay: cell viability relative to vehicle (fraction of vehicle); NCI-H2228 is an ALK-positive lung cancer line and DTP means drug-tolerant persister; higher = less growth inhibition
Conditions: 100 nM; treatment time 6 days
Summary of the method: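 NCI-H2228 parental cells and drug-tolerant persister cells were plated in 384-well plates; the persisters had been generated with 1000 nM of a targeted drug over 13 days. One day later, the 3114-agent TargetMol anti-cancer compound library was added at 100 nM, with DMSO serving as vehicle. ATP was measured 6 days after that using the CellTiter-Glo 3D Cell Viability Assay. Values are cell viability expressed relative to vehicle-treated cells.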

Structure (SMILES) | cell viability
O=C(Nc1cccc(-c2ccccc2)c1)OC1CCCCC1 | 1.01
CC(C)=CCC[C@](C)(O[C@@H]1O[C@H](CO)[C@@H](O)[C@H](O)[C@H]1O)[C@H]1CC[C@]2(C)[C@@H]1[C@H](O)C[C@@H]1[C@@]3(C)CC[C@H](O[C@@H]4O[C@H](CO)[C@@H](O)[C@H](O)[C@H]4O)C(C)(C)[C@@H]3CC[C@]12C [Ginsenoside F2] | 1.03
CCCCCCCCCCCCCCCC(=O)NCCO [Palmidrol] | 1.01
CO[C@@H](C(=O)N1Cc2[nH]nc(NC(=O)c3ccc(N4CCN(C)CC4)cc3)c2C1)c1ccccc1 [Danusertib] | 0.841
Cc1c(Cc2ccc3ccccc3n2)c2cc(F)ccc2n1CC(=O)O [Timapiprant] | 0.96
C=CC(=O)N1CCC(Oc2cc3c(Nc4ccc(Cl)c(Cl)c4F)ncnc3cc2OC)CC1 [Poziotinib] | 0.975
C[C@H](NC(=O)CNC(=O)c1cccc(Cl)c1)c1ccccc1 | 1.09
Cc1cc(=O)n(-c2ccccc2)n1C [Antipyrine] | 1.07
COc1c(O[C@@H]2O[C@H](CO)[C@@H](O)[C@H](O)[C@H]2O)cc2occ(-c3ccc(O)cc3)c(=O)c2c1O [Tectoridin] | 1.11
Clc1ccc(COC(Cn2ccnc2)c2ccc(Cl)cc2Cl)c(Cl)c1 (stereo not drawn) [Miconazole] | 1.12
Cn1ncc(Cl)c1-c1cc(C(=O)N[C@H](CN)Cc2cccc(F)c2)sc1Cl [Afuresertib] | 0.718
O=C(O)c1cc(O)c2c(c1)[C@@H]([C@H]1c3cc(C(=O)O)cc(O)c3C(=O)c3c(O[C@@H]4O[C@H](CO)[C@@H](O)[C@H](O)[C@H]4O)cccc31)c1cccc(O[C@@H]3O[C@H](CO)[C@@H](O)[C@H](O)[C@H]3O)c1C2=O [Sennoside B] | 1.11
Cc1ccc(-c2ncc(Cl)cc2-c2ccc(S(C)(=O)=O)cc2)cn1 [Etoricoxib] | 1.13
CC(C)=CC(=O)O[C@H]1Cc2cc3ccc(=O)oc3cc2OC1(C)C [Decursin] | 1.04
COc1cc2c(c(OC)c1OC)-c1c(cc(OC)c(OC)c1OC)CC(C)C(C)C2 (stereo not drawn) [Schizandrin A] | 1.11
COc1cc(O)cc(CCc2ccc(O)c(OC)c2)c1 [Gigantol] | 0.972
CC(C)/N=c1\cc2n(-c3ccc(Cl)cc3)c3ccccc3nc-2cc1Nc1ccc(Cl)cc1 [Clofazimine] | 1.09
O=C1Cc2cc(CCN3CCN(c4nsc5ccccc45)CC3)c(Cl)cc2N1 [Ziprasidone hydrochloride monohydrate] | 1.1
CCN[C@H]1C[C@H](C)S(=O)(=O)c2sc(S(N)(=O)=O)cc21 [Dorzolamide hydrochloride] | 1.08
O=C(Nc1ccc(Cl)cc1)C1CCCN(C(=O)c2cccc(-c3ccco3)c2)C1 (stereo not drawn) | 1.08
CC(=O)Nc1ccc(NC(=S)NC(=O)c2ccc(C(C)(C)C)cc2)cc1 [Tenovin-1] | 1.05
O=C(NOCCO)c1ccc2cncn2c1Nc1ccc(I)cc1F | 0.979
CCOc1cc(C(=O)N2CCC(N3CCN(C)CC3)CC2)ccc1Nc1ncc2c(n1)N(C1CCCC1)c1ccccc1C(=O)N2C | 1.23
O=c1cc(-c2ccc(O)c(O)c2)oc2cc(O)cc(O)c12 [Luteolin] | 1.2

Structure (SMILES) | cell viability
Nc1ncn([C@H]2C[C@H](O)[C@@H](CO)O2)c(=O)n1 [Decitabine] | 0.65
O=C(Cc1ccc(-c2ccc(OCCN3CCOCC3)cc2)cn1)NCc1ccccc1 | 0.329
Cc1cc(Nc2ccc(NC(=O)c3ccc(Nc4ccnc5ccccc45)cc3)cc2)nc(N)n1 | 1.1
CCCC(=O)O [Butyric  acid] | 1.08
C[C@]12CC[C@@H]3c4ccc(O)cc4CC[C@H]3[C@@H]1CC[C@@H]2OC(=O)CCC1CCCC1 [Depofemin] | 1.05
C[C@H](NC(=O)[C@@H](O)c1cc(F)cc(F)c1)C(=O)N[C@@H]1C(=O)N(C)c2ccccc2-c2ccccc21 | 0.853
CN1CCN(c2ccc(-c3ccncc3-c3cc(F)c(O)c(F)c3)cc2)CC1 | 1.09
O=c1cc(N2CCOCC2)oc2c1ccc1ccccc12 | 0.97
CCOC(=O)C(C)(C)Oc1ccc(Cl)cc1 [Clofibrate] | 1.14
CN1CCC(=C2c3ccccc3CC(=O)c3sccc32)CC1 [Ketotifen fumarate] | 1.1
COc1ccccc1N1CCN(CC(O)COc2cccc3ccccc23)CC1 (stereo not drawn) [Naftopidil] | 1.13
CC[C@H](CC[C@@H](C)[C@H]1CC[C@H]2[C@@H]3CC=C4C[C@@H](O)CC[C@]4(C)[C@H]3CC[C@]12C)C(C)C [Beta-Sitosterol] | 1.14
O=C(O)CC[C@H]1CC[C@@](c2cc(F)ccc2F)(S(=O)(=O)c2ccc(Cl)cc2)CC1 | 1.06
C/C=C1\NC(=O)[C@H]2CSSCC/C=C/[C@H](CC(=O)N[C@H](C(C)C)C(=O)N2)OC(=O)[C@H](C(C)C)NC1=O [Romidepsin] | 0.0515
CCCN(CCC)C(=O)C(CCC(=O)O)NC(=O)c1ccccc1 (stereo not drawn) [Proglumide] | 1.07
COc1cc(OC)c(C(=O)CCCN2CCCC2)c(OC)c1 [Buflomedil hydrochloride] | 0.975
CC(=O)NCCc1c[nH]c2ccc(O)cc12 [N-Acetyl-5-hydroxytryptamine] | 0.888
CC1(C)CC(=O)C2=C(C1)NC(=S)NC2c1cccc(O)c1 (stereo not drawn) [Dimethylenastron] | 1.08
O.O.O.O.O=C([O-])CC(O)(CC(=O)[O-])C(=O)[O-].[Li+].[Li+].[Li+] [Lithium citrate tribasic tetrahydrate] | 0.981
O=c1ccc2ccc(O)c(O)c2o1 [Daphnetin] | 1.08
OCC1=C[C@@H](O)[C@@H]2C=CO[C@@H](O[C@@H]3O[C@H](CO)[C@@H](O)[C@H](O)[C@H]3O)[C@H]12 [Aucubin] | 1.14
CC(C)(C)C(=O)OCOP(=O)(COCCn1cnc2c(N)ncnc21)OCOC(=O)C(C)(C)C [Adefovir dipivoxil] | 1.11
COc1ccc(CCNCc2ccc(OCc3ccc(Cl)nc3)c(OC)c2)cc1OC [SBE 13 hydrochloride] | 1.11
Cn1c(=O)cnn(CCCCN2CCN(c3ncccn3)CC2)c1=O [Eptapirone] | 1.04
